Experimental data reported in patent publication US20240262922A1 (Merck KGaA, published 2024).

T1: recombinant human OX40L protein (R&D Systems, cat. #1054-OX) (human, UniProt P23510 51-183)
T1 sequence: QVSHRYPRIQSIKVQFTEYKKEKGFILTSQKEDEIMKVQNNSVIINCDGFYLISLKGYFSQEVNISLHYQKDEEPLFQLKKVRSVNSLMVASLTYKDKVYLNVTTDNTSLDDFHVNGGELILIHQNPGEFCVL

T2: AVI-GST-His6-hOX40L (human, UniProt P23510 51-183)
T2 sequence: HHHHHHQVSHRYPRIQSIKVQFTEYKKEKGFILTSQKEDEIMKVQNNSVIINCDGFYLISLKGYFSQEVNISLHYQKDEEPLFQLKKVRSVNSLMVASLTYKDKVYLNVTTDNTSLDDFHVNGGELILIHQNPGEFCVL

B1: CTLA4_anti OX40L fusion protein 95B06 (Fc fusion)
heavy: [sequence of about 120 residues not given]EPKSSDKTHTCPPCPAPPVAGPSVFLFPPKPKDTLMISRTPEVTCVVVDVSHEDPEVKFNWYVDGVEVHNAKTKPREEQYNSTYRVVSVLTVLHQDWLNGKEYKCAVSNKALPSSIEKTISKAKGQPREPQVYTLPPSREEMTKNQVSLTCLVKGFYPSDIAVEWESNGQPENNYKTTPPVLDSDGSFFLYSKLTVDKSRWQQGNVFSCSVMHEALHNHYTQKSLSLSPGAGGGGSGGGGSGGGGSEVQLLESGGGLVQPGGSLRLSCAASGFTFSSYAMTWVRQAPGKGLEWVSDISGSGGSTKYADSVKGRFTISRDNPKNTLYLQMNSLRAEDTAVYYCAKDLGFYSTWDTDYWGQGTLVTVSSASTKGPSVFPLAPSSKSTSGGTAALGCLVKDYFPEPVTVSWNSGALTSGVHTFPAVLQSSGLYSLSSVVTVPSSSLGTQTYICNVNHKPSNTKVDKRVEPKSC
light: DMQMTQSPSSLSASVGDRVTITCRASQGIRNDLDWYQQKPGKVPKRLIHAASSLQSGVPSRFSGSGSGTEFTLTISSLQPEDFVTYYCLQHNTYPWTFGQGTKLEIKRTVAAPSVFIFPPSDEQLKSGTASVVCLLNNFYPREAKVQWKVDNALQSGNSQESVTEQDSKDSTYSLSSTLTLSKADYEKHKVYACEVTHQGLSSPVTKSFNRGEC
B2: CTLA4_anti OX40L fusion protein 84E11 (Fc fusion)
heavy: [sequence of about 120 residues not given]EPKSSDKTHTCPPCPAPPVAGPSVFLFPPKPKDTLMISRTPEVTCVVVDVSHEDPEVKFNWYVDGVEVHNAKTKPREEQYNSTYRVVSVLTVLHQDWLNGKEYKCAVSNKALPSSIEKTISKAKGQPREPQVYTLPPSREEMTKNQVSLTCLVKGFYPSDIAVEWESNGQPENNYKTTPPVLDSDGSFFLYSKLTVDKSRWQQGNVFSCSVMHEALHNHYTQKSLSLSPGAGGGGSGGGGSGGGGSQLQLQESGPGLVKPSETLSLTCTVSGGSISSGSFYWGWIRQPPGKGLEWIGTIYYSGSTYYNPSLKSRVAISVDTSKNQFYLNLNFVTAADTAVYHCARERSSSWYPFDYWGQGTLVTVSSASTKGPSVFPLAPSSKSTSGGTAALGCLVKDYFPEPVTVSWNSGALTSGVHTFPAVLQSSGLYSLSSVVTVPSSSLGTQTYICNVNHKPSNTKVDKRVEPKSC
light: SSELTQDPAVSVALGQTVRITCQGDSLRNYFANWYQQKPGQAPVLVIYGKNNRPSGIPDRFSGSSSGNTASLTITGAQAEDEADYYCNSRDSSGYHVVFGGGTKLTVLGQPKAAPSVTLFPPSSEELQANKATLVCLISDFYPGAVTVAWKADSSPVKAGVETTTPSKQSNNKYAASSYLSLTPEQWKSHKSYSCQVTHEGSTVEKTVAPTECS
B3: CTLA4_anti OX40L fusion protein 85F12 (Fc fusion)
heavy: [sequence of about 120 residues not given]EPKSSDKTHTCPPCPAPPVAGPSVFLFPPKPKDTLMISRTPEVTCVVVDVSHEDPEVKFNWYVDGVEVHNAKTKPREEQYNSTYRVVSVLTVLHQDWLNGKEYKCAVSNKALPSSIEKTISKAKGQPREPQVYTLPPSREEMTKNQVSLTCLVKGFYPSDIAVEWESNGQPENNYKTTPPVLDSDGSFFLYSKLTVDKSRWQQGNVFSCSVMHEALHNHYTQKSLSLSPGAGGGGSGGGGSGGGGSQVQLQQSGPGLVKPSQTLSLTCAISGDSVSSNSAVWNWIRQSPSRGLEWLGRTDYRSKWNNDYAVSVKSRITINPDTSKNQFSLQLNSVTPEDTAVYYCARGDAGMASFDYWGQGTLVTVSSASTKGPSVFPLAPSSKSTSGGTAALGCLVKDYFPEPVTVSWNSGALTSGVHTFPAVLQSSGLYSLSSVVTVPSSSLGTQTYICNVNHKPSNTKVDKRVEPKSC
light: SSELTQPPSVSVSPGQTASITCSGDKLGDKYACWYQQKAGQSPVVVIYQDRKRPSGIPERFSGSNSGNTATLTISGTQAMDEADYYCQTWDRRTAVFGGGTKLTVLGQPKAAPSVTLFPPSSEELQANKATLVCLISDFYPGAVTVAWKADSSPVKAGVETTTPSKQSNNKYAASSYLSLTPEQWKSHKSYSCQVTHEGSTVEKTVAPTECS
B4: CTLA4_anti OX40L fusion protein 88B06 (Fc fusion)
heavy: [sequence of about 120 residues not given]EPKSSDKTHTCPPCPAPPVAGPSVFLFPPKPKDTLMISRTPEVTCVVVDVSHEDPEVKFNWYVDGVEVHNAKTKPREEQYNSTYRVVSVLTVLHQDWLNGKEYKCAVSNKALPSSIEKTISKAKGQPREPQVYTLPPSREEMTKNQVSLTCLVKGFYPSDIAVEWESNGQPENNYKTTPPVLDSDGSFFLYSKLTVDKSRWQQGNVFSCSVMHEALHNHYTQKSLSLSPGAGGGGSGGGGSGGGGSEVQLLESGGGLVQPGGSLRLSCAASGFTFSNYAMSWVRQAPGKGLEWVSVISGSGDSTYYAESVKGRFTISRDNSKNTLYLQMTSLRAEDTAEYYCAKDRTPVYGLDVWGQGTTVTVSSASTKGPSVFPLAPSSKSTSGGTAALGCLVKDYFPEPVTVSWNSGALTSGVHTFPAVLQSSGLYSLSSVVTVPSSSLGTQTYICNVNHKPSNTKVDKRVEPKSC
light: SYELTQPLSVSVALGQTARISCGGNNIGRKNVHWYQQKPGQAPVLVIYGDSNRPSGIPERFSGSNSGNTATLTIGRAQAGDEADYYCQVWDSSTVFGGGTKLTVLGQPKAAPSVTLFPPSSEELQANKATLVCLISDFYPGAVTVAWKADSSPVKAGVETTTPSKQSNNKYAASSYLSLTPEQWKSHKSYSCQVTHEGSTVEKTVAPTECS
B5: CTLA4_anti OX40L fusion protein 97G07 (Fc fusion)
heavy: [sequence of about 120 residues not given]EPKSSDKTHTCPPCPAPPVAGPSVFLFPPKPKDTLMISRTPEVTCVVVDVSHEDPEVKFNWYVDGVEVHNAKTKPREEQYNSTYRVVSVLTVLHQDWLNGKEYKCAVSNKALPSSIEKTISKAKGQPREPQVYTLPPSREEMTKNQVSLTCLVKGFYPSDIAVEWESNGQPENNYKTTPPVLDSDGSFFLYSKLTVDKSRWQQGNVFSCSVMHEALHNHYTQKSLSLSPGAGGGGSGGGGSGGGGSQLQLQESGPGLVKPSETLSLTCTVSGGSISSSSYYWGWIRQPPGKGLEWIGGIGSVDYSGNTYYKPSLKSRVTISVDTSKNQFSLKLSTVTAADTAVYHCARHRGIYFFDYWGQGTLVTVSSASTKGPSVFPLAPSSKSTSGGTAALGCLVKDYFPEPVTVSWNSGALTSGVHTFPAVLQSSGLYSLSSVVTVPSSSLGTQTYICNVNHKPSNTKVDKRVEPKSC
light: YYELTQPLSVSVALGQTARIPCGGNNIENKNVHWYQQKPGQAPVLVIYRDSNRPSGIPERFSGSNSGNTATLSINRAQAGDEADYYCQVWDSNTVIFGGGTKVTVLGQPKAAPSVTLFPPSSEELQANKATLVCLISDFYPGAVTVAWKADSSPVKAGVETTTPSKQSNNKYAASSYLSLTPEQWKSHKSYSCQVTHEGSTVEKTVAPTECS
notes: CTLA4 ECD - variant IgG1 hinge-Fc - linker - anti-OX40L Fab; also called CTLA4-Fc-anti-OX40L 97G07
B6: CTLA4_anti OX40L fusion protein 85F10 (Fc fusion)
heavy: [sequence of about 120 residues not given]EPKSSDKTHTCPPCPAPPVAGPSVFLFPPKPKDTLMISRTPEVTCVVVDVSHEDPEVKFNWYVDGVEVHNAKTKPREEQYNSTYRVVSVLTVLHQDWLNGKEYKCAVSNKALPSSIEKTISKAKGQPREPQVYTLPPSREEMTKNQVSLTCLVKGFYPSDIAVEWESNGQPENNYKTTPPVLDSDGSFFLYSKLTVDKSRWQQGNVFSCSVMHEALHNHYTQKSLSLSPGAGGGGSGGGGSGGGGSEVQLLESGAGLLKPSETLSLTCAVYGGSFSDYYWSWIRQPPGKGLEWIGEINHSGSTNYNPSLKSRVTISVDTSKNQFSLKLSSVTAADTAVYYCARKRGANFFDDWGQGTLVTVSSASTKGPSVFPLAPSSKSTSGGTAALGCLVKDYFPEPVTVSWNSGALTSGVHTFPAVLQSSGLYSLSSVVTVPSSSLGTQTYICNVNHKPSNTKVDKRVEPKSC
light: B5 light with Y1S, P21T, Y48K, F61L, S73T, N75S, N93S, I96V, V103L

Columns and labels:
[1] = target: T1, recombinant human OX40L protein (R&D …); assay: cell-based or functional assay
AVI-GST-His6-hOX40L = target: T2, AVI-GST-His6-hOX40L; assay: cell-based or functional assay
[2] = target: T1, recombinant human OX40L protein (R&D …); assay: SPR steady state, Biacore T200; OX40L immobilised on CM5, fusion protein in solution
Experimental: Recombinant OX40L proteins (human OX40L protein, R&D systems, cat. #1054-OX; cynomolgus monkey OX40L, Novoprotein cat. #CP72) were immobilized onto Biacore CM5 sensor chips and anti-OX40L antibodies were bound to this surface at a range of concentrations. The response at steady state was measured with a Biacore T200 instrument (GE Healthcare) and plotted against the concentration of antibody and fit to a 1:1 binding model. The steady state KD was determined as the antibody concentration at a response equal to half the maximal response (Rₘₐₓ).

| Binder | Primary T cell activation assay IC50 [1] [nM] | OX40L neutralization/OX40-HEK Reporter IC50 (AVI-GST-His6-hOX40L) [nM] | Kd [2] [nM] | binding result [2] |
| --- | --- | --- | --- | --- |
| B1 | 20.8 | 12.7 | 106 |  |
| B2 | 8.1 | 50.2 |  | no binding |
| B3 |  | > 161 | 65.8 |  |
| B4 |  | > 161 | 63.8 |  |
| B5 | 7.1 | 7.7 | 57.4 |  |
| B6 |  | 120 | 51.1 |  |

Residue numbers refer to the chain shown, from its start.
